The supplement of paper PMC8728848
This excerpt belongs to a sample that is enriched for the strongest signals.

What was measured:
Experiment in all cases: glycan array binding signal (z-score within array); higher = stronger binding
Conditions in all cases: glycan notation: IUPAC condensed, linker removed
[1] = tested on: Fuc(a1-2)[GalNAc(a1-4)]Gal(b1-4)GlcNAc
Summary of the method: (§1)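 The binding signal is a Z-score computed within each array and averaged over linkers. Arrays of the same protein sequence at different concentrations or buffers were also averaged together. Data originate from 3228 arrays in the Consortium for Functional Glycomics database, kept only where the protein sequence was available.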

[2] = tested on: Fuc(a1-3)[Gal(b1-4)]GlcNAc(b1-2)Man(a1-3)[Fuc(a1-3)[Gal(b1-4)]GlcNAc(b1-2)Man(a1-6)]Man(b1-4)GlcNAc(b1-4)GlcNAc
Summary of the method: as §1

[3] = tested on: Fuc(a1-3)[Gal(b1-4)]GlcNAc(b1-6)[Gal(b1-3)GlcNAc(b1-3)]Gal(b1-4)Glc
Summary of the method: as §1

[4] = tested on: Fuc(a1-3)[Gal(b1-4)]GlcNAc(b1-2)Man(a1-3)[Fuc(a1-3)[Gal(b1-4)]GlcNAc(b1-2)Man(a1-6)]Man(b1-4)GlcNAc(b1-4)[Fuc(a1-6)]GlcNAc
Summary of the method: as §1

[5] = tested on: Fuc(a1-3)[Gal(b1-4)]GlcNAc6S
Summary of the method: as §1

[6] = tested on: Fuc(a1-3)[Gal(b1-4)]GlcNAc
Summary of the method: as §1

[7] = tested on: Fuc(a1-3)[Gal(b1-4)]GlcNAc(b1-6)GalNAc
Summary of the method: as §1

[8] = tested on: Fuc(a1-2)[GalNAc(a1-3)]Gal
Summary of the method: as §1

[9] = tested on: Fuc(a1-3)[Gal(b1-4)]GlcNAc(b1-3)GalNAc
Summary of the method: as §1

[10] = tested on: Fuc(a1-3)[Gal3S(b1-4)]Glc
Summary of the method: as §1

[11] = tested on: Fuc(a1-3)[Gal(b1-4)]Glc6S
Summary of the method: as §1

[12] = tested on: Fuc(a1-3)[Gal(b1-4)]GlcNAc(b1-4)Gal(b1-4)[Fuc(a1-3)]GlcNAc
Summary of the method: as §1

Fuc(a1-3)GlcNAc = tested on: Fuc(a1-3)GlcNAc
Summary of the method: as §1

[13] = tested on: Fuc(a1-3)[Gal3S(b1-4)]GlcNAc6S
Summary of the method: as §1

[14] = tested on: Fuc(a1-2)[GalNAc(b1-3)]Gal
Summary of the method: as §1

[15] = tested on: Fuc(a1-3)[Gal(b1-4)]GlcNAc(b1-2)Man(a1-6)[Gal(b1-4)GlcNAc(b1-2)Man(a1-3)]Man(b1-4)GlcNAc(b1-4)GlcNAc
Summary of the method: as §1

[16] = tested on: Fuc(a1-3)[Gal(b1-4)]GlcNAc(b1-4)Gal(b1-4)[Fuc(a1-3)]GlcNAc(b1-4)Gal(b1-4)[Fuc(a1-3)]GlcNAc
Summary of the method: as §1

[17] = tested on: Fuc(a1-3)[Neu5Ac(a2-3)]Gal(b1-4)GlcNAc(b1-3)GalNAc
Summary of the method: as §1

M-Ficolin (Homo sapiens) (chain not printed)
glycan array binding signal (z-score) [1]: -0.096

M-Ficolin Y271F (Homo sapiens) (chain not printed)
glycan array binding signal (z-score) [2]: -0.377
glycan array binding signal (z-score) [3]: -0.076

NCAM1 (Homo sapiens) (chain not printed)
glycan array binding signal (z-score) [4]: 1.75
glycan array binding signal (z-score) [5]: 0.585
glycan array binding signal (z-score) [6]: -0.212

FGF2 (chain not printed)
glycan array binding signal (z-score) [7]: 1.79

Thrombomodulin Extracellular (Homo sapiens) (chain not printed)
glycan array binding signal (z-score) [8]: -0.2
glycan array binding signal (z-score) [4]: 0.085
glycan array binding signal (z-score) [9]: 0.11
glycan array binding signal (z-score) [5]: -0.691
glycan array binding signal (z-score) [10]: -0.108

H-Ficolin (Homo sapiens) (chain not printed)
glycan array binding signal (z-score) [11]: 0.305

M-Ficolin G221F A256V (Homo sapiens) (chain not printed)
glycan array binding signal (z-score) [9]: -0.345
glycan array binding signal (z-score) [12]: -0.322

Serum Amyloid P component (Homo sapiens) (chain not printed)
glycan array binding signal (z-score) (Fuc(a1-3)GlcNAc): -0.667
glycan array binding signal (z-score) [13]: 0.551

Gal 8-short (Homo sapiens) (chain not printed)
glycan array binding signal (z-score) [12]: -0.762

Meso764 (Homo sapiens) (chain not printed)
glycan array binding signal (z-score) [1]: -0.08
glycan array binding signal (z-score) [14]: -0.748
glycan array binding signal (z-score) [11]: 0.004
glycan array binding signal (z-score) [4]: 1.43

Siglec-2 (Homo sapiens) (chain not printed)
glycan array binding signal (z-score) [15]: 0.089

Gal 8 long (Homo sapiens) (chain not printed)
glycan array binding signal (z-score) [5]: -0.239

Gal 3 (Homo sapiens) (chain not printed)
glycan array binding signal (z-score) [15]: -0.304
glycan array binding signal (z-score) [6]: 0.029

Collectin K1 (Homo sapiens) (chain not printed)
glycan array binding signal (z-score) [16]: -0.21
glycan array binding signal (z-score) [6]: -0.209
glycan array binding signal (z-score) [17]: 2.98

VWF (Homo sapiens) (chain not printed)
glycan array binding signal (z-score) [8]: 6.05
glycan array binding signal (z-score) (Fuc(a1-3)GlcNAc): -0.044
glycan array binding signal (z-score) [12]: -0.277
